Experimental data published in the antibiotic and cytotoxicity screens of Wong et al. (2023).
The list shows a part of the results.

Tests used:
HSkMC = human skeletal muscle cells; test: cytotoxicity call (relative viability < 0.9); settings: 10 µM
HepG2 = test: cytotoxicity call (relative viability < 0.9); settings: 10 µM
S. aureus RN4220 = test: growth inhibition call (relative growth <= 0.2); settings: 50 µM

Row | SMILES | cytotoxicity call (HSkMC) | cytotoxicity call (HepG2) | growth inhibition call (S. aureus RN4220)
1 | C[C@@H]1CN([C@H](C)CO)C(=O)Cc2cc(NC(=O)CCN3CCOCC3)ccc2O[C@@H]1CN(C)C(=O)Nc1ccccc1 | inactive | inactive | inactive
2 | CC=Cc1ccc2n(c1=O)C[C@@H]1[C@@H](CO)[C@H](C(=O)NCC3CC3)[C@H]2N1S(=O)(=O)c1cn(C)cn1 | inactive | inactive | inactive
3 | C[C@H](CO)N1C[C@H](C)[C@@H](CN(C)C(=O)Nc2ccc(C(F)(F)F)cc2)OCc2cn(nn2)CCCC1=O | inactive | inactive | inactive
4 | C[C@H](CO)N1C[C@H](C)[C@H](CN(C)CC2CC2)OCCCC[C@H](C)Oc2ccc(NC(=O)c3ccccc3)cc2C1=O | inactive | inactive | inactive
5 | C[C@H]1CN([C@@H](C)CO)S(=O)(=O)c2ccc(C#Cc3ccccc3F)cc2O[C@H]1CN(C)C(=O)Cc1cccnc1 | inactive | inactive | inactive
6 | CC(C)NC(=O)Nc1ccc2c(c1)C(=O)N([C@@H](C)CO)C[C@@H](C)[C@@H](CN(C)Cc1ccc(C(=O)O)cc1)O2 | inactive | inactive | inactive
7 | C[C@@H]1CN([C@H](C)CO)S(=O)(=O)c2ccc(-c3ccc(F)cc3)cc2O[C@@H]1CN(C)C(=O)C1CCOCC1 | inactive | inactive | inactive
8 | C[C@H]1CN([C@@H](C)CO)C(=O)c2ccccc2-c2ccccc2CO[C@H]1CN(C)C(=O)Nc1ccc(-c2ccccc2)cc1 | inactive | inactive | inactive
9 | COCC(=O)N1C[C@H](C)[C@H](OC)CN(C)C(=O)c2ccc(NC(=O)c3ccc(OC)cc3)cc2OC[C@H]1C | inactive | inactive | inactive
10 | C[C@@H]1CN([C@H](C)CO)C(=O)c2cc(NC(=O)C3CCCCC3)ccc2O[C@@H]1CN(C)Cc1ccc(Cl)c(Cl)c1 | inactive | inactive | inactive
11 | C[C@H]1CN([C@@H](C)CO)C(=O)c2c(c3ccccc3n2C)-c2ccccc2CO[C@H]1CN(C)Cc1ccccc1 | inactive | inactive | inactive
12 | C[C@H](CO)N1C[C@H](C)[C@H](CN(C)Cc2ccc(Cl)c(Cl)c2)Oc2ccc(NC(=O)Nc3ccc(C(F)(F)F)cc3)cc2C1=O | active | active | inactive
13 | CCOc1ccc(NC2=NC(=O)/C(=C/c3cc(Br)c(OCc4ccccc4)c(OC)c3)S2)cc1 | inactive | inactive | inactive
14 | O=C(C[C@H]1C=C[C@H](NC(=O)C2CCC2)[C@@H](CO)O1)NCCCN1CCOCC1 | inactive | inactive | inactive
15 | C[C@@H]1CC[C@@]2(OC1)O[C@H]1C[C@H]3[C@H]4C[C@@H](O)[C@H]5C[C@@H](O[C@@H]6O[C@H](CO)[C@H](O[C@@H]7O[C@H](CO)[C@@H](O)[C@H](O[C@@H]8OC[C@@H](O)[C@H](O)[C@H]8O)[C@H]7O[C@@H]7O[C@H](CO)[C@@H](O[C@@H]8O[C@H](CO)[C@@H](O)[C@H](O)[C@H]8O)[C@H](O)[C@H]7O)[C@H](O)[C@H]6O)[C@H](O)C[C@]5(C)[C@@H]4CC[C@]3(C)[C@H]1[C@@H]2C | active | active | inactive
16 | COc1ccc(S(=O)(=O)N(C)C[C@H]2Oc3ccc(NC(=O)Nc4cccc5ccccc45)cc3C(=O)N([C@H](C)CO)C[C@@H]2C)cc1 | inactive | inactive | inactive
17 | C[C@@H]1CN([C@@H](C)CO)C(=O)c2cc(NS(=O)(=O)c3ccc(F)cc3)ccc2O[C@H]1CN(C)S(=O)(=O)c1cccs1 | inactive | inactive | inactive
18 | C[C@H](CO)N1C[C@H](C)[C@@H](CN(C)C(=O)Nc2cccc3ccccc23)OCCCC[C@H](C)Oc2ccc(NS(=O)(=O)c3ccc(Cl)cc3)cc2C1=O | inactive | inactive | inactive
19 | CCCN(C)C[C@@H]1OCCCC[C@H](C)Oc2ccc(NC(=O)Nc3ccc(F)cc3)cc2C(=O)N([C@@H](C)CO)C[C@@H]1C | inactive | inactive | inactive
20 | CS(=O)(=O)Nc1ccc2c(c1)[C@H]1C[C@H](CC(=O)NCc3ccc(-c4ccccc4)cc3)O[C@H](CO)[C@H]1O2 | inactive | inactive | inactive
21 | CCCC(=O)Nc1ccc2c(c1)C(=O)N(C)[C@H]1CC[C@H](CC(=O)NCCN3CCCCC3)O[C@H]1CO2 | inactive | inactive | inactive
22 | C[C@@H]1CCCCO[C@@H](CN(C)Cc2ccncc2)[C@H](C)CN([C@@H](C)CO)C(=O)c2cc(NC(=O)Cc3ccccc3)ccc2O1 | inactive | inactive | inactive
23 | C[C@H]1CN([C@@H](C)CO)C(=O)Cc2cc(NC(=O)Nc3ccc(C#N)cc3)ccc2O[C@H]1CN(C)S(=O)(=O)c1ccc(Oc2ccccc2)cc1 | inactive | inactive | inactive
24 | C[C@H]1CN([C@@H](C)CO)C(=O)c2cccc(NS(=O)(=O)c3ccccc3)c2O[C@H]1CN(C)Cc1ccc(Cl)c(Cl)c1 | inactive | inactive | inactive
25 | COc1ccc(S(=O)(=O)Nc2ccc3c(c2)CC(=O)N([C@H](C)CO)C[C@H](C)[C@H](CN(C)S(=O)(=O)c2ccc(F)cc2)O3)cc1 | inactive | inactive | inactive
26 | COc1ccc(S(=O)(=O)N(C)C[C@@H]2Oc3cc(C#CC4CC4)ccc3S(=O)(=O)N([C@@H](C)CO)C[C@H]2C)cc1 | inactive | inactive | inactive

Row | SMILES | cytotoxicity call (HSkMC) | cytotoxicity call (HepG2) | growth inhibition call (S. aureus RN4220)
27 | C[C@@H]1CN([C@H](C)CO)C(=O)CCCn2nncc2CO[C@H]1CN(C)Cc1ccc(C(=O)Nc2ccccc2N)cc1 | inactive | inactive | inactive
28 | CCCN(C)C[C@@H]1OCCCC[C@@H](C)Oc2ccc(NS(=O)(=O)c3ccc(Cl)cc3)cc2C(=O)N([C@@H](C)CO)C[C@@H]1C | inactive | inactive | inactive
29 | CCCC#Cc1cnc2c(c1)C(=O)N([C@@H](C)CO)C[C@H](C)[C@H](CN(C)C(=O)c1ccc3c(c1)OCO3)O2 | inactive | inactive | inactive
30 | COc1ccc(S(=O)(=O)Nc2ccc3c(c2)C(=O)N([C@H](C)CO)C[C@H](C)[C@H](CN(C)S(=O)(=O)c2cn(C)cn2)OCCCC[C@@H](C)O3)cc1 | inactive | inactive | inactive
31 | C[C@@H]1CN([C@@H](C)CO)C(=O)c2cc(NS(=O)(=O)c3ccc(F)cc3)ccc2O[C@@H](C)CCCCO[C@H]1CN(C)CC1CCCCC1 | inactive | inactive | inactive
32 | CS(=O)(=O)N1C[C@@H]2OCCN(c3cnccn3)[C@H]2C1 | inactive | inactive | inactive
33 | C[C@H](CO)N1C[C@H](C)[C@@H](CN(C)C(=O)CN(C)C)Oc2cc(-c3ccc(C#N)cc3)ccc2S1(=O)=O | inactive | inactive | inactive
34 | C[C@@H]1CN([C@@H](C)CO)C(=O)c2cc(NS(=O)(=O)c3cn(C)cn3)ccc2O[C@@H]1CN(C)S(=O)(=O)c1ccc(F)cc1 | inactive | inactive | inactive
35 | COc1ccc(CN(C)C[C@H]2OCCCC[C@@H](C)Oc3ccc(NC(=O)Nc4cccc5ccccc45)cc3C(=O)N([C@H](C)CO)C[C@@H]2C)cc1 | active | active | inactive
36 | O=C(NCc1ccncc1)C(=O)NC[C@H]1OCCN1S(=O)(=O)c1ccc(F)cc1 | inactive | inactive | inactive
37 | O=C(O)C[C@](O)(CC(=O)[O][Bi]1[O]C(=O)C[C@@](O)(CC(=O)O)C(=O)[O]1)C(=O)O | inactive | inactive | inactive
38 | CCS(=O)(=O)Nc1ccc2c(c1)C(=O)N(C)C[C@H](OC)[C@H](C)CN(Cc1ccccn1)[C@@H](C)CO2 | inactive | inactive | inactive
39 | NCC(=O)N1C[C@H](NC(=O)c2ccccc2)C[C@H]1C(=O)O | inactive | inactive | inactive
40 | C[C@H](CO)N1C[C@H](C)[C@@H](CN(C)S(=O)(=O)c2cn(C)cn2)Oc2ccc(NC(=O)CCCCCC(=O)Nc3ccccc3N)cc2C1=O | inactive | inactive | inactive
41 | C[C@@H]1CN([C@@H](C)CO)C(=O)Cc2cc(NS(=O)(=O)c3ccc(Cl)cc3)ccc2O[C@H]1CN(C)S(=O)(=O)c1cn(C)cn1 | inactive | inactive | inactive
42 | Cc1ccc(S(=O)(=O)Nc2ccc3c(c2)CC(=O)N([C@@H](C)CO)C[C@H](C)[C@@H](CN(C)S(=O)(=O)c2cn(C)cn2)O3)cc1 | inactive | inactive | inactive
43 | CC(C)[C@H]1C(=O)N[C@@H](CCCNC(=N)N)C(=O)NCC(=O)N[C@@H](CC(=O)O)C(=O)N[C@H](Cc2ccccc2)C(=O)N1C | inactive | active | inactive
44 | O=c1c2ccccc2oc2ccc(O)cc12 | inactive | inactive | inactive
45 | C[C@@H]1CN([C@@H](C)CO)C(=O)c2cccc(NC(=O)Nc3ccc(C(F)(F)F)cc3)c2O[C@@H]1CN(C)Cc1ccncc1 | inactive | inactive | inactive
46 | CNC(=O)NCc1ccc2c(c1)OCO2 | inactive | inactive | inactive
47 | COc1ccc(S(=O)(=O)N(C)C[C@@H]2Oc3ncc(-c4ccncc4)cc3C(=O)N([C@H](C)CO)C[C@@H]2C)cc1 | inactive | inactive | inactive
48 | c1ccc(Cn2c(-c3ccc(OC[C@H](C4CCNCC4)n4c(-c5ccccc5)nc5ccccc54)cc3)nc3ccccc32)cc1 | active | active | inactive
49 | CO[C@H]1CN(C)C(=O)c2cc(NS(C)(=O)=O)ccc2OC[C@@H](C)N(C(=O)C2CCOCC2)C[C@@H]1C | inactive | inactive | inactive
50 | Cc1ccc(-c2cnc(-c3ccc(Br)cc3)o2)cc1 | inactive | inactive | inactive
51 | C[C@@H]1CCCCO[C@@H](CN(C)C(=O)CCC(F)(F)F)[C@H](C)CN([C@@H](C)CO)C(=O)c2cc(NC(=O)CCC(F)(F)F)ccc2O1 | inactive | inactive | inactive
52 | C[C@H](CO)N1C[C@H](C)[C@@H](CN(C)S(=O)(=O)c2ccccc2)OCCCC[C@H](C)Oc2ccc(NS(C)(=O)=O)cc2C1=O | inactive | inactive | inactive
